From the supplement of paper PMC9446081
Among all 39,000 compounds or so, about 220 (0.56%) showed activity. This is one part of the list.

System: Escherichia coli K-12 BW25113
Assay: relative growth (OD600 normalised to plate interquartile mean) (fraction); higher = less growth inhibition, active = 0.2 or less
Conditions: 50 µM; LB; incubation time: overnight (16-24 h)
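Further: static incubation at 37 °C against the wild-type strain, values averaged over two biological replicates.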

Which relative growth does the source give for `CN1CCN(C(=O)C[C@H]2CC[C@@H]3[C@H](COC[C@H](O)CN3C(=O)C3CCCC3)O2)CC1` here?
The relative growth was inactive: 0.971.

Which relative growth does the source give for `C[C@H]1CN([C@@H](C)CO)C(=O)c2cc(NC(=O)Nc3ccc4c(c3)OCO4)ccc2O[C@@H]1CN(C)S(=O)(=O)c1cn(C)cn1` here?
The relative growth was inactive: 0.951.

`Cc1noc(C)c1NC(=O)Nc1ccc2c(c1)C(=O)N([C@H](C)CO)C[C@H](C)[C@@H](CN(C)C(=O)Nc1cccc3ccccc13)OCCCC[C@@H](C)O2` was tested. Which relative growth did it give?
Its relative growth is inactive: 0.992.

How did the relative growth turn out when `C[C@@H]1CCCCO[C@@H](CN(C)C(=O)CCCN(C)C)[C@H](C)CN([C@H](C)CO)C(=O)c2cc(NS(=O)(=O)c3cn(C)cn3)ccc2O1` was run?
The relative growth was inactive: 0.991.

Which relative growth does the source give for `C[C@@H]1CN([C@@H](C)CO)C(=O)c2cc(NC(=O)Nc3ccc(C(F)(F)F)cc3)ccc2O[C@@H](C)CCCCO[C@H]1CN(C)C(=O)Nc1cccc2ccccc12` here?
The relative growth was inactive: 1.01.

With `Cn1nnc2c1CCN(C(=O)CS(C)(=O)=O)[C@@H]2COCC1CC1` as the molecule, how does the relative growth read?
Its relative growth is inactive: 1.01.

For `CC(C)NC(=O)Nc1ccc2c(c1)CC(=O)N([C@@H](C)CO)C[C@@H](C)[C@H](CN(C)S(=O)(=O)c1cn(C)cn1)O2`, which relative growth is on record?
The relative growth was inactive: 1.02.

How did the relative growth turn out when `Cc1ccc(S(=O)(=O)Nc2ccc3c(c2)CC(=O)N([C@@H](C)CO)C[C@@H](C)[C@@H](CN(C)C(=O)NC(C)C)O3)cc1` was run?
Its relative growth is inactive: 1.01.

For `N[C@H](C(=O)O)[C@@H]1CC(Cl)=NO1`, which relative growth is on record?
The relative growth was inactive: 1.01.

`O=C1CCNc2cc3ccccc3cc21` was tested. Which relative growth did it give?
The relative growth was inactive: 0.932.

For `C[C@H](CO)N1C[C@H](C)[C@H](CN(C)C(=O)Nc2ccc(C(F)(F)F)cc2)Oc2ccc(NC(=O)Nc3cccc4ccccc34)cc2C1=O`, which relative growth is on record?
The relative growth was inactive: 1.01.

`C[C@@H](O)Cn1c(=N)n(C)c2ccccc21` was tested. Which relative growth did it give?
The relative growth was inactive: 0.989.

How did the relative growth turn out when `COc1ccc(S(=O)(=O)Nc2ccc3c(c2)CC(=O)N([C@@H](C)CO)C[C@@H](C)[C@@H](CN(C)S(=O)(=O)c2ccccc2)O3)cc1` was run?
Its relative growth is inactive: 0.919.

For `C[C@H]1NC(=O)COC12CCN(C(=O)c1cnccn1)CC2`, which relative growth is on record?
The relative growth was inactive: 0.971.

How did the relative growth turn out when `C[C@@H]1CCCCO[C@@H](CN(C)C(=O)Cc2ccccc2)[C@H](C)CN([C@H](C)CO)C(=O)c2cc(NC(=O)Nc3ccc(F)cc3)ccc2O1` was run?
Its relative growth is inactive: 0.974.

For `C[C@@H]1CCCCO[C@H](CN(C)S(=O)(=O)c2ccc(Cl)cc2)[C@@H](C)CN([C@H](C)CO)C(=O)c2cc(NC(=O)Nc3cccc4ccccc34)ccc2O1`, which relative growth is on record?
The relative growth was inactive: 1.01.

For `Cc1noc(C)c1NC(=O)N(C)C[C@@H]1Oc2ccc(NC(=O)c3ccncc3)cc2C(=O)N([C@@H](C)CO)C[C@H]1C`, which relative growth is on record?
The relative growth was inactive: 1.01.

How did the relative growth turn out when `CC(CCC(=O)[O-])C1CCC2C3C(=O)CC4CC(=O)CCC4(C)C3CC(=O)C12C.[Na+]` (stereo not drawn) was run?
The relative growth was inactive: 1.

For `Cc1cc2nc(C(=O)N[C@H]3CCN(C)C3)cc(-c3ccccc3Cl)c2c(C)c1-c1ccc(CO)cc1`, which relative growth is on record?
Its relative growth is inactive: 0.963.

With `O=C1O[C@H](c2ccccc2)[C@H](c2ccccc2)N2[C@H]1[C@@H](C(=O)Nc1nc3ccccc3s1)[C@]1(C(=O)Nc3ccc(C#CC4(O)CCCCCC4)cc31)[C@H]2c1ccccc1OCCO` as the molecule, how does the relative growth read?
The relative growth was inactive: 1.03.

With `O=C(CN1CCOCC1)NCC[C@@H]1CC[C@@H](NS(=O)(=O)c2ccc(Cl)cc2)[C@H](CO)O1` as the molecule, how does the relative growth read?
Its relative growth is inactive: 1.

`CNC(=O)c1ccc(Nc2ncc(C(F)(F)F)c(NCc3nccnc3N(C)S(C)(=O)=O)n2)cc1` was tested. Which relative growth did it give?
Its relative growth is inactive: 1.06.

For `Cc1noc(C)c1NC(=O)N(C)C[C@H]1Oc2ccc(NC(=O)CCN3CCOCC3)cc2CC(=O)N([C@@H](C)CO)C[C@H]1C`, which relative growth is on record?
Its relative growth is inactive: 0.971.

For `COc1ccccc1CNC(=O)C[C@@H]1CC[C@@H]2[C@H](COC[C@@H](O)CN2C(=O)Nc2ccc(F)cc2)O1`, which relative growth is on record?
Its relative growth is inactive: 0.965.

With `COc1ccc(S(=O)(=O)Nc2cccc3c2O[C@H](CN(C)S(C)(=O)=O)[C@H](C)CN([C@H](C)CO)C3=O)cc1` as the molecule, how does the relative growth read?
The relative growth was inactive: 1.

For `COc1ccc(NC(=O)N(C)C[C@@H]2OCCCC[C@@H](C)Oc3ccc(NC(=O)Nc4ccc(C(F)(F)F)cc4)cc3C(=O)N([C@@H](C)CO)C[C@@H]2C)cc1`, which relative growth is on record?
Its relative growth is inactive: 0.99.

Which relative growth does the source give for `Cc1cc(C)c(S(=O)(=O)NCCO)cc1C` here?
Its relative growth is inactive: 0.995.

For `CCS(=O)(=O)N1C[C@]2(CCN(CC2)Cc2cccc(c2)OC)c2c(n(c3cc(ccc23)OC)C)[C@H]1CO`, which relative growth is on record?
The relative growth was inactive: 1.

How did the relative growth turn out when `C[C@@H]1CN([C@H](C)CO)C(=O)c2cccc(N(C)C)c2O[C@H]1CN(C)S(=O)(=O)c1ccc(Cl)cc1` was run?
Its relative growth is inactive: 1.01.

For `C[C@@H]1CN([C@H](C)CO)C(=O)Cc2cc(NS(=O)(=O)c3ccccc3)ccc2O[C@H]1CN(C)Cc1ccncc1`, which relative growth is on record?
The relative growth was inactive: 1.01.

With `C=CCOC[C@H]1NCCc2c1nnn2CC` as the molecule, how does the relative growth read?
Its relative growth is inactive: 0.957.

For `COc1ccc(NC(=O)Nc2ccc3c(c2)C(=O)N([C@H](C)CO)C[C@@H](C)[C@H](CN(C)C(=O)Nc2ccc(F)cc2)OCCCC[C@@H](C)O3)cc1`, which relative growth is on record?
Its relative growth is inactive: 1.02.

With `COc1ccc(NC(=O)N(C)C[C@@H]2OCCCC[C@@H](C)Oc3ccc(NS(=O)(=O)c4ccc(C)cc4)cc3C(=O)N([C@@H](C)CO)C[C@@H]2C)cc1` as the molecule, how does the relative growth read?
Its relative growth is inactive: 1.03.

How did the relative growth turn out when `Cc1ccc(S[C@]2(C(=O)NCCCN(C)C)CC(=O)N(Cc3ccccc3C(F)(F)F)[C@@H]2c2ccc(CO)cc2)cc1` was run?
The relative growth was inactive: 1.03.

For `Cc1noc(C)c1NC(=O)Nc1ccc2c(c1)C(=O)N([C@@H](C)CO)C[C@H](C)[C@@H](CN(C)Cc1ccc(Cl)c(Cl)c1)OCCCC[C@H](C)O2`, which relative growth is on record?
The relative growth was inactive: 0.978.

Which relative growth does the source give for `COc1cccc(S(=O)(=O)Nc2ccc3c(c2)[C@@H]2C[C@H](CC(=O)N4CCCCC4)O[C@@H](CO)[C@@H]2O3)c1` here?
The relative growth was inactive: 1.

Which relative growth does the source give for `Cc1ccc(S(=O)(=O)Nc2ccc3c(c2)C(=O)N([C@H](C)CO)C[C@@H](C)[C@@H](CN(C)Cc2ccccc2)OCCCC[C@@H](C)O3)cc1` here?
The relative growth was inactive: 0.999.

`C[C@H](CO)N1C[C@H](C)[C@@H](CN(C)C(=O)Nc2ccccc2)OCCCC[C@H](C)Oc2ccc(NC(=O)Cc3ccccc3)cc2C1=O` was tested. Which relative growth did it give?
Its relative growth is inactive: 1.

`C[C@@H]1CCCCO[C@H](CN(C)Cc2ccc3c(c2)OCO3)[C@@H](C)CN([C@@H](C)CO)C(=O)c2cc(NC(=O)NC3CCCCC3)ccc2O1` was tested. Which relative growth did it give?
The relative growth was inactive: 1.

With `Cc1ccc(S(=O)(=O)Nc2ccc3c(c2)C(=O)N([C@H](C)CO)C[C@@H](C)[C@@H](CN(C)C(=O)c2ccccc2)OCCCC[C@@H](C)O3)cc1` as the molecule, how does the relative growth read?
The relative growth was inactive: 0.998.

With `C[C@@H]1CCCCO[C@@H](CN(C)C(=O)Nc2ccc(C(F)(F)F)cc2)[C@H](C)CN([C@H](C)CO)C(=O)c2cc(NC(=O)Cc3ccccc3)ccc2O1` as the molecule, how does the relative growth read?
Its relative growth is inactive: 1.01.

`C[C@H]1CN([C@@H](C)CO)C(=O)c2cccc(NS(C)(=O)=O)c2O[C@@H]1CN(C)Cc1ccc(C(=O)O)cc1` was tested. Which relative growth did it give?
The relative growth was inactive: 0.978.

`CC(=O)O[C@@H]1CC[C@@]2(C)[C@@H](CC[C@]3(C)[C@@H]2C(=O)C=C2[C@@H]4[C@@H](C)[C@H](C)CC[C@]4(C)CC[C@]23C)[C@@]1(C)C(=O)O` was tested. Which relative growth did it give?
The relative growth was inactive: 0.825.

Which relative growth does the source give for `COc1ccc(-c2cnc3c(c2)C(=O)N([C@H](C)CO)C[C@H](C)[C@@H](CN(C)C(=O)Cc2ccccn2)O3)cc1` here?
The relative growth was inactive: 0.974.

How did the relative growth turn out when `COc1ccc(S(=O)(=O)Nc2ccc3c(c2)C(=O)N([C@H](C)CO)C[C@@H](C)[C@@H](CN(C)Cc2ccc(Oc4ccccc4)cc2)O3)cc1` was run?
The relative growth was inactive: 0.982.

Which relative growth does the source give for `COc1ccc(NC(=O)Nc2ccc3c(c2)C(=O)N([C@H](C)CO)C[C@@H](C)[C@H](CN(C)C(=O)Nc2ccc(C(F)(F)F)cc2)O3)cc1` here?
The relative growth was inactive: 0.959.

`COc1cccc(C#Cc2ccc3c(c2)O[C@H](CN(C)C(=O)c2ccccn2)[C@H](C)CN([C@H](C)CO)S3(=O)=O)c1` was tested. Which relative growth did it give?
Its relative growth is inactive: 1.05.

For `Cc1noc(C)c1S(=O)(=O)Nc1ccc2c(c1)CC(=O)N([C@@H](C)CO)C[C@H](C)[C@H](CN(C)S(C)(=O)=O)O2`, which relative growth is on record?
The relative growth was inactive: 0.991.

For `Nc1ccccc1OCc1ccccc1`, which relative growth is on record?
Its relative growth is inactive: 0.955.

With `C[C@@H]1CN([C@@H](C)CO)C(=O)c2cc(NC(=O)C3CCCCC3)ccc2O[C@@H](C)CCCCO[C@@H]1CN(C)C(=O)NC1CCCCC1` as the molecule, how does the relative growth read?
The relative growth was inactive: 0.977.

With `CC(C)CC#Cc1ccc2c(c1)O[C@H](CN(C)S(=O)(=O)c1ccc(F)cc1)[C@H](C)CN([C@@H](C)CO)S2(=O)=O` as the molecule, how does the relative growth read?
The relative growth was inactive: 1.04.

For `C[C@H]1CN([C@@H](C)CO)C(=O)c2cc(NC(=O)CCC(F)(F)F)ccc2O[C@H]1CN(C)Cc1ccc(C(=O)Nc2ccccc2N)cc1`, which relative growth is on record?
The relative growth was inactive: 0.998.

With `C[C@@H]1CN([C@@H](C)CO)C(=O)c2cc(NC(=O)CCC(F)(F)F)ccc2O[C@@H](C)CCCCO[C@@H]1CN(C)C(=O)c1ccccc1` as the molecule, how does the relative growth read?
The relative growth was inactive: 1.02.

How did the relative growth turn out when `C[C@@H]1CN([C@@H](C)CO)C(=O)c2cc(NS(=O)(=O)c3cccs3)ccc2O[C@@H](C)CCCCO[C@H]1CN(C)Cc1ccccc1` was run?
Its relative growth is inactive: 1.

For `C[C@H](CO)N1C[C@H](C)[C@H](CN(C)S(=O)(=O)c2cn(C)cn2)Oc2c(NC(=O)Nc3ccc4c(c3)OCO4)cccc2C1=O`, which relative growth is on record?
Its relative growth is inactive: 1.01.

Which relative growth does the source give for `Cc1ccc(S(=O)(=O)Nc2ccc3c(c2)C(=O)N([C@@H](C)CO)C[C@@H](C)[C@@H](CN(C)S(=O)(=O)c2ccc(F)cc2)OCCCC[C@H](C)O3)cc1` here?
Its relative growth is inactive: 1.05.

Which relative growth does the source give for `C[C@@H]1CN([C@@H](C)CO)C(=O)Cc2cc(NC(=O)Cn3cnnn3)ccc2O[C@H]1CN(C)S(C)(=O)=O` here?
Its relative growth is inactive: 0.996.

With `C[C@@H]1CN([C@H](C)CO)C(=O)c2cccc(NC(=O)C3CC3)c2O[C@@H]1CN(C)Cc1ccc(C(=O)O)cc1` as the molecule, how does the relative growth read?
Its relative growth is inactive: 0.986.
